From article PMC4336329 (PLoS ONE, 2015)
The whole screen tested about 310,000 compounds, of which about 2,200 (0.71%) showed an effect of 50% or more. Effects have a minus sign here. The list shows a part of the results.

The molecules below were run against human ether-à-go-go-related gene (hERG) potassium channel (human, UniProt Q12809) (assay: primary screen, population patch clamp on CHO cells stably expressing hERG).
Chain of human ether-à-go-go-related gene (hERG) potassium channel (Q12809 whole entry, looked up): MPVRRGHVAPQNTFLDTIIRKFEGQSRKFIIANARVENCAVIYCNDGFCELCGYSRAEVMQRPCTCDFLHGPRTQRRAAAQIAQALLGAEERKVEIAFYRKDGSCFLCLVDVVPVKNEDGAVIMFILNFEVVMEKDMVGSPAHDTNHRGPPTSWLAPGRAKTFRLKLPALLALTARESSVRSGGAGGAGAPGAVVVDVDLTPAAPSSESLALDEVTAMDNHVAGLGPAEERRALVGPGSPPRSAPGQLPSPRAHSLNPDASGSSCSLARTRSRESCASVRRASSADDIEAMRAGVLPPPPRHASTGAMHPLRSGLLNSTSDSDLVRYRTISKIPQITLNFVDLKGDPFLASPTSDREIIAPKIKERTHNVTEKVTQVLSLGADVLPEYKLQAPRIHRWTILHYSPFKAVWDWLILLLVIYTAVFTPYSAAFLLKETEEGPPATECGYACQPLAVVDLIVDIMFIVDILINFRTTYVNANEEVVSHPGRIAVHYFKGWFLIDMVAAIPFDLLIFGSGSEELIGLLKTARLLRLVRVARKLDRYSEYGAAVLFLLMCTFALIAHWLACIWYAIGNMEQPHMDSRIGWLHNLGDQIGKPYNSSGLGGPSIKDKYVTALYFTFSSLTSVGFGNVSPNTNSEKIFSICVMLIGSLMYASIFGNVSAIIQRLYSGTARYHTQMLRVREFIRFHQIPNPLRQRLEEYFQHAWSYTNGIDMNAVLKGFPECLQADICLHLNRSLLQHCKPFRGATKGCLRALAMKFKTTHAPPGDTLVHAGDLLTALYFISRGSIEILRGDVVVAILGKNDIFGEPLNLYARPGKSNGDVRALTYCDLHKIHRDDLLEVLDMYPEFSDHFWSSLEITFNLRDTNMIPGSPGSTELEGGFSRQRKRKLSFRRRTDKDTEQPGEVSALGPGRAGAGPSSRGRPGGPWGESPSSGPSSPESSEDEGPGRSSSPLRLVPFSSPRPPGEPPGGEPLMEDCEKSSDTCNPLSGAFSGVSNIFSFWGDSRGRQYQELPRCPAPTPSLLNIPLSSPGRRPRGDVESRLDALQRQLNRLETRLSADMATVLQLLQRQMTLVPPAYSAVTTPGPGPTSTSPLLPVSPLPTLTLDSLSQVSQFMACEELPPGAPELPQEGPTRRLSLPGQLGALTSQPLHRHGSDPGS

| SMILES | hERG current change (%, negative = inhibition) at 1uM [%] |
| --- | --- |
| CC(C)C(c1nnnn1CC1CCCO1)N1CCN(Cc2ccc3c(c2)OCO3)CC1.Cl (centres unmarked) | -1.36 |
| COc1ccc(CCNc2c3ccccc3nc3ccccc23)cc1OC.Cl | -59.8 |
| C=CCC(C#Cc1ccccc1)N(C)C (centres unmarked) | -9.85 |
| Cc1ccc(NC(=O)CN(C)C(=O)Cn2ncc(Cl)c(Cl)c2=O)cc1 | 13 |
| CC1CCC(C(C)C)C(OC(=O)C[n+]2cc(-c3ccc(Cl)cc3)n3c2CCCCC3)C1.[Cl-] (centres unmarked) | -19.9 |
| COc1ccc(C(=O)c2nc3c(n2O)CCCC3)cc1OC | 14.6 |
| Cc1cccc(NC(=O)c2ccc(COc3ccccc3)o2)n1 | 2.11 |
| Cc1ccc(-n2cc(CN3CCN(c4ccccn4)CC3)c(-c3ccc(F)cc3)n2)cc1 | 8.06 |
| CC(CN1CCCCC1)OC(=O)COc1ccc(Br)cc1 (centres unmarked) | 12.4 |
| COCCC(=O)Nc1ccc2c(c1)CN(C(=O)c1ccc(CSC)o1)CC2 | 12.3 |
| O=C(O)CC(NCc1ccco1)C(=O)OCC1CCCO1 (centres unmarked) | 4.95 |
| CCOC(=O)N1CCN(C(=O)Nc2ccc3nc(C)c(C)nc3c2)CC1 | 4.44 |
| CCc1ccc(OCC(=O)Nc2nnc(-c3ccco3)s2)cc1 | 19.4 |
| COc1ccc(C2N=C(N)N=C(N)N2c2ccccc2OC)cc1OC.Cl (centres unmarked) | 7.87 |
| COc1ccccc1OCC(O)CN1CCOCC1 (centres unmarked) | 14.9 |
| Cc1ccc(OCc2nnc(SCC(=O)c3ccccc3)n2Cc2ccco2)cc1 | -15.6 |
| CN(C)CCCNCC(=O)NN(c1ccccc1)c1ccccc1.O=C(O)C(=O)O | 6.83 |
| O=C1C2C3C=CC(C4CC34)C2C(=O)N1/N=C/c1ccc(-c2ccc([N+](=O)[O-])cc2)o1 (centres unmarked) | 15.5 |
| Cc1ccc(C23CC4CC(CC(C(=O)NCC(=O)O)(C4)C2)C3)cc1 | 14 |

| SMILES | hERG current change (%, negative = inhibition) at 1uM [%] |
| --- | --- |
| O=C(CSCc1c(Cl)cccc1Cl)NN1C(=O)c2ccccc2C1=O | -3.03 |
| O=C(c1ccc(Cl)cc1[N+](=O)[O-])N1CCOCC1 | 11 |
| Cc1ccccc1NC(=O)CSc1nnc2ccc(-c3cccnc3)nn12 | 6.48 |
| COc1cccc2[nH]c(C(=O)NCc3ccccc3)cc12.Cl | 10.2 |
| Cc1nc(NCCc2ccc(O)cc2)c2nnn(Cc3ccccc3)c2n1 | 3.8 |
| CCN(C(=O)c1cc(S(=O)(=O)N2CCOCC2)cn1C)c1cccc(C)c1 | -15.6 |
| CCOCCCNC(=O)N[C@@H](Cc1ccccc1)C(=O)OC | 14.4 |
| C=CCN(CC=C)C(=O)C1CCN(Cc2ccc(OCc3ccccc3)cc2)CC1.O=C(O)C(=O)O | -40.6 |
| COc1ccc(C(=O)Cn2nnc(-c3ccccc3NC(=O)c3ccco3)n2)cc1 | 3.17 |
| O=C(Cc1cccs1)Nc1ccc(F)c(F)c1 | 18.1 |
| O=C(CSc1nnnn1C1CCCC1)N1CCN(C(=O)c2ccco2)CC1 | 8.87 |
| O=C(Nc1ccc2nc3n(c(=O)c2c1)CCCCC3)c1cc([N+](=O)[O-])ccc1F | -0.984 |
| O=C(c1ccccc1)c1ccc(N=Nc2c(O)[nH]c(=O)[nH]c2=O)cc1 | 11.4 |
| CCOC(=O)c1cnc(SCC(=O)c2ccccc2)nc1N | 8.55 |
| Cn1cc(S(=O)(=O)N2CCC(Cc3ccccc3)CC2)c(=O)n(C)c1=O | 3.02 |
| COc1cc(OC)cc(C(=O)N2c3ccc(F)cc3CCC2C)c1 (centres unmarked) | 20.1 |
| O=[N+]([O-])c1ncccc1OCc1ccc(Cl)c(Cl)c1 | 9.43 |
| CC(=O)c1cccc(NC(=O)Nc2ccc3c(c2)OCO3)c1 | 12 |
| O=C(Nc1ccc2c(c1)OCCO2)c1ccccc1 | 10.3 |

| SMILES | hERG current change (%, negative = inhibition) at 1uM [%] |
| --- | --- |
| O=[N+]([O-])c1cc(C(F)(F)F)ccc1NCCc1ccncc1 | 14 |
| O=C(CN1C(=O)NC2(CCCC2)C1=O)Nc1nc2c(F)cc(F)cc2s1 | 2.33 |
| Cc1ccc(-c2c[n+](CC(=O)Nc3c(C)cccc3C)c3n2CCC3)cc1.[Cl-] | 7.88 |
| CCc1cc(C)cc(OCCNC(=O)c2ncn[nH]2)c1 | 13.9 |
| Cc1cccc(C(=O)Nc2sc(-c3ccccc3)cc2C(=O)O)c1 | 2.46 |
| COC(=O)c1cn(Cc2cccnc2)c(=O)c2ccccc12 | 12.8 |
| O=C(CSc1nc(=O)n2ccccc2n1)OCc1ccccc1 | 2.37 |
| O=C(CSCc1c(F)cccc1Cl)NCc1ccco1 | 16.7 |
| O=C(CNS(=O)(=O)c1cccc(Cl)c1)OCc1csc(-c2ccccc2)n1 | 2 |
| COc1ccc(/C=C2/C(=O)NC(=O)N(c3ccc(C)c(C)c3)C2=O)cc1CN1C(=O)c2ccccc2C1=O | -3.04 |
| COc1ccc(CNCCNC(=O)c2nonc2N)cc1OC.Cl | 16.5 |
| COC(=O)Nc1ccc(S(=O)(=O)Nc2cc(OC)nc(OC)n2)cc1 | 7.33 |
| O=C(NCc1ccccc1)C1=C[C@H](C2CCCCC2)C[C@H](OCc2ccc(CO)cc2)O1 | 8.77 |
| CC(C)CNC(=O)c1ccc2c(c1)C(=O)N(Cc1ccco1)C2=O | 1.79 |
| O=C(NCCc1ccccc1)C1CCCN1C(=O)Nc1ccccc1 (centres unmarked) | 15.1 |
| COc1cccc(C2CC3(CC(C)(C)NC(=S)N3)Oc3cc(O)ccc32)c1 (centres unmarked) | 8.7 |
| Cc1cccc(C)c1NC(=O)CN(C)CC(=O)N(C)CC(=O)Nc1ccccc1Br | 16.6 |
| O=C1CC(c2ccc(Cl)cc2)CC(O)=C1C=NCCO (centres unmarked) | 10.6 |
